# Source: PubChem BioAssay AID1030 (National Center for Advancing Translational Sciences (NCATS), 2008)
# In all, about 220,000 compounds went through this assay and about 16,000 (7.3%) were called active. The shares of active, inactive and inconclusive entries below differ from those in the screen. The call rests on the fitted dose curve; in most records, active means well fitted inhibition curve with a large enough effect (not every such curve was filed as active); inconclusive means small, poorly fitted or top-dose-only effect, or another doubt; inactive means no such curve, though single readings can be large or run the other way. Potencies of inconclusive entries are left out as doubtful fits.
# Molecular target: Aldehyde dehydrogenase 1A1 (Homo sapiens) (UniProt P00352)
# Chain of UniProt P00352 (P00352 whole entry, looked up): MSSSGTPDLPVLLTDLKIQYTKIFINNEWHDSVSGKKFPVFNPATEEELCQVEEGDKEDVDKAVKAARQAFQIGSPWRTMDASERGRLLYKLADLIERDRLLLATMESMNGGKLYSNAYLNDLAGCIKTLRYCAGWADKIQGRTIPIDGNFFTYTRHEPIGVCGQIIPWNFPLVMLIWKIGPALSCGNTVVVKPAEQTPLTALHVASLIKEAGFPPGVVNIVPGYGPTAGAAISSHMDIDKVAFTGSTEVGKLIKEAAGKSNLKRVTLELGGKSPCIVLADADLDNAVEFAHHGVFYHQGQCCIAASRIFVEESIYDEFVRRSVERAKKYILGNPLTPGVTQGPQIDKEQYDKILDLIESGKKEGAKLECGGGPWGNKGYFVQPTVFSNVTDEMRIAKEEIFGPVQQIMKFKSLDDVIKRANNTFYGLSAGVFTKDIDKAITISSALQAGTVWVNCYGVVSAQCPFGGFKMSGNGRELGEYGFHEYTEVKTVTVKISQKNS
# Test: qHTS Assay for Inhibitors of Aldehyde Dehydrogenase 1 (ALDH1A1);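 on activity, negative = inhibition: plate controls were no enzyme wells and a reference inhibitor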
# Conditions: Purified ALDH1A1, NADH fluorescence, propionaldehyde substrate; series mostly up to 75.3 µM; activity, negative = inhibition: at the top concentration
# Potency means the concentration at half of the fitted maximal effect; tags describe the fitted curve by direction and shape.
SMILES,"activity, negative = inhibition",Potency
S=C1NCCNC(=S)NCCOCCOCCN1,inactive: 1.19%,
CC(=O)c1ccc2c3c(cccc13)C(=O)N(c1c(C)nn(C)c1C)C2=O,,"inconclusive [inhibitor, single point]"
CCCn1nnc(NC(=S)NC(=O)Cc2ccccc2)n1,,"inconclusive [inhibitor, single point]"
COCCNC(=O)C(c1cccs1)N(C(=O)Cn1nnc2ccccc21)c1ccc(OC)cc1 (centres undefined),,"inconclusive [inhibitor, single point]"
CCN(CC)CCn1c(=S)[nH]c2ccccc2c1=O,inactive: 4%,
CC(C)Cn1nc(NC(=O)C(C)(C)C)c2cc3ccccc3nc21,,"inconclusive [inhibitor, single point]"
Cc1nnc(SCC(=O)N(C)C2CCCCC2)s1,inactive: 5.48%,
Cc1cc2cc(CN(CC3CCCO3)C(=O)c3cnccn3)c(=O)[nH]c2cc1C (centres undefined),,"inconclusive [inhibitor, single point]"
CCN(CC)S(=O)(=O)c1ccc(C(=O)NCc2ccc3c(c2)OCO3)cc1,,"inconclusive [inhibitor, single point]"
N#Cc1c(N)n(CCNC(=O)c2cccs2)c2nc3ccccc3nc12,,"inconclusive [inhibitor, partial curve]"
COc1ccc(S(=O)(=O)N(C)CC(=O)NCc2ccco2)cc1,,active: 35.5 µM
Cc1cc2cc(CNC(=S)NC3CCCCC3)ccc2[nH]1,inactive: 7.19%,
C=CCOc1ccc(/C(CC)=N/O)c(OC)c1,,"inconclusive [inhibitor, single point]"
CCOc1ccc(-n2c(SCC(=O)Nc3ccc(Br)cc3)nc3n[nH]c(C)c3c2=N)cc1,,"inconclusive [inhibitor, single point]"
O=C(Cn1nnc(-c2ccccc2Cl)n1)NCc1ccc2c(c1)OCO2,inactive: 1.3%,
CC1CCCC(NCC(=O)Nc2ccc(C(N)=O)cc2)C1C (centres undefined),,"inconclusive [inhibitor, single point]"
CCCCc1nc(NCCN2CCOCC2)c(C#N)c2c1COC(C)(C)C2,,active: 11.2 µM
CCC(CC)NC(=O)c1cccc([N+](=O)[O-])c1C,inactive: 10.8%,
COc1ccc(NCC(=O)Nc2ccc(C#N)cc2)cc1Cl,,active: 10 µM
O=S(=O)(c1ccc(Cl)c(NC(=S)Nc2cccc(O)c2)c1)N1CCOCC1,,"inconclusive [inhibitor, single point]"
O=C(NCc1ccc(Cl)cc1)C(=O)NCC1OCCN1S(=O)(=O)c1ccc2c(c1)OCCO2 (centres undefined),,"inconclusive [inhibitor, partial curve]"
CCn1ccnc1CN1CCc2c([nH]c3ccccc23)C1C1CCCCC1 (centres undefined),inactive: -13.2%,
CC(=O)c1c(C)[nH]c(C(=O)OCC(=O)N2c3ccccc3NC(=O)C2(C)C)c1C,inactive: -13.5%,
COc1ccc(/C(N)=N/OC(=O)c2ccc(C)c([N+](=O)[O-])c2)cc1OC,inactive: 3.37%,
O=C(N1CCOCC1)C1(c2ccccc2)CCCCC1,inactive: -14.9%,

SMILES,"activity, negative = inhibition",Potency
O=C(CN1CCC(n2nnc3cc(F)ccc32)CC1)Nc1ccccc1N1CCOCC1,,"inconclusive [inhibitor, partial curve]"
O=C1CC(N2CCN(c3ccccc3)CC2)C(=O)N1c1ccc2c(c1)OCO2 (centres undefined),inactive: -1.63%,
O=C(CC12CC3CC(CC(C3)C1)C2)NCC(=O)N1CCc2ccccc2C1,,"inconclusive [inhibitor, partial curve]"
CCOC(=O)c1ccc(N2C(=O)CC(Sc3nnc(C)s3)C2=O)cc1 (centres undefined),,active: 1 µM
O=C(O)CN(CCN(CC(=O)O)CC(=O)O)CCN(CC(=O)O)CC(=O)O,,inactive
Cc1nc(SCc2ccccc2)c([N+](=O)[O-])[nH]1,,"inconclusive [inhibitor, single point]"
C=CCn1c(=O)c2c3c(sc2n2c(Nc4ccc(OC)cc4)nnc12)CCCC3,,"inconclusive [inhibitor, partial curve]"
CC(C)(CO)Cc1cc(C(C)(C)C)c(O)c(C(C)(C)C)c1,,"inconclusive [inhibitor, single point]"
COc1ccc2cc3c(N)c(C(=O)N4CCCC4)sc3nc2c1,,"inconclusive [inhibitor, partial curve]"
Cc1ccc(C(N)=S)c(C)c1,inactive: -4.87%,
CCCOC(=O)c1c(NC(=O)CCC(=O)O)sc2c1CCCCC2,,"inconclusive [inhibitor, single point]"
Cc1cc(-c2nn(-c3ccccc3F)cc2CNCCc2cnc[nH]2)c(C)s1,,active: 14.1 µM
CC(N=Cc1c(O)c2ccccc2oc1=O)C(=O)O (centres undefined),,"inconclusive [inhibitor, partial curve]"
Cc1nnc(SCc2nc3sc(C(=O)O)c(C)c3c(=O)[nH]2)s1,,active: 20 µM
O=S(=O)(c1ccc2c(c1)OCCO2)N1CCC(c2nc3ccccc3s2)CC1,,"inconclusive [inhibitor, single point]"
COCCN1CC(O)=C(c2nc3ccccc3c(=O)[nH]2)C1=N,,"inconclusive [inhibitor, partial curve]"
COCCCNS(=O)(=O)c1ccc(Oc2ncc(C(F)(F)F)cc2Cl)cc1,,"inconclusive [inhibitor, single point]"
COc1ccc(CCNC(=O)CSc2ccccn2)cc1,,"inconclusive [inhibitor, single point]"
O=C(Nc1ccccc1C(=O)NCc1ccco1)c1ccco1,,"inconclusive [inhibitor, single point]"
C=CCn1c(-c2ccc(Cl)cc2)c[nH]c1=S,,active: 1.41 µM
Cc1cc(C)n(-c2ccc(C(=O)OCC(=O)N(CC(C)C)C3CCS(=O)(=O)C3)cc2)n1 (centres undefined),inactive: -0.258%,
O=C1C=C(Nc2ccc(Cl)cc2)CC(c2ccc(Cl)cc2)C1 (centres undefined),inactive: -6.71%,
CC1(C)C(=O)Nc2ccccc2N1C(=O)CN1C(=O)C(=O)N(C2CCCC2)C1=O,,"inconclusive [inhibitor, single point]"
N#C/C(=C\Nc1ccccc1O)c1nc2ccccc2o1,,"inconclusive [inhibitor, single point]"
CCCCCCc1cc2cc(-c3nnc(-c4ccccc4)o3)c(=O)oc2cc1O,,"inconclusive [inhibitor, partial curve]"

SMILES,"activity, negative = inhibition",Potency
CCc1cc2c(c(CC)n1)CCC(=O)N2Cc1ccc(-c2ccccc2-c2nn[nH]n2)cc1,inactive: 5.65%,
O=C1CCCC/C1=C/Nc1ccc(C(=O)O)cc1,,"inconclusive [inhibitor, single point]"
Cc1cc2ccccc2n1CCNC(=O)C1CCCCC1,,"inconclusive [inhibitor, single point]"
Cc1nc2ccccc2c2oc(C(=O)N3CCN(C(=O)c4ccco4)CC3)cc12,,"inconclusive [inhibitor, single point]"
O=C(CCC1CCCN(C(=O)c2ccoc2)C1)NCc1ccccc1F (centres undefined),inactive: -5.75%,
CN1CCN(CCCNC(=O)c2cn(C3CCCCC3)c(=O)c3c2c2ccccc2n3C)CC1,,"inconclusive [inhibitor, partial curve]"
CC(C)(C)C1=C(C#N)C(c2cc3c(cc2Br)OCO3)C(C#N)=C(N)O1 (centres undefined),,"inconclusive [inhibitor, full curve]"
COc1ccc(Cc2nnc(NC(=O)c3c(-c4ccccc4)noc3C)s2)cc1OC,,active: 31.6 µM
CN(C)CCC(=O)N1c2ccccc2Sc2ccc(Cl)cc21,,"inconclusive [inhibitor, single point]"
CSc1ccc(/C=N/NC(=O)c2ccc(O)cc2)cc1,,"inconclusive [inhibitor, partial curve]"
O=C(Cn1nc(-c2ccc(F)cc2)ccc1=O)Nc1ccc(C(=O)NC2CC2)cc1,inactive: 4.64%,
CC1CN/C(=C\C(=O)c2ccc(Br)cc2)C(=O)N1 (centres undefined),inactive: 13.4%,
Cc1cc(C)c(OCC(=O)Nc2nnc(-c3ccco3)o2)c(C)c1,inactive: -0.479%,
Cc1ccc2nc(N/N=C\c3ccc([N+](=O)[O-])o3)nc(-c3ccccc3)c2c1,inactive: 5.62%,
COc1ccc(CNC(=O)C2CCN(C(=O)N3CCOc4ccc(C)cc43)CC2)cc1,,"inconclusive [inhibitor, single point]"
Cc1ccc(S(=O)(=O)c2cc3c(=O)n4cc(C)ccc4nc3n(CC3CCCO3)c2=N)cc1 (centres undefined),,"inconclusive [inhibitor, single point]"
O=S(=O)(c1ccc(-c2nc3ccccc3s2)cc1)N1CCCC1,,"inconclusive [inhibitor, single point]"
CCCOC(=O)C1=C(C)NC2=C(C(=O)CC(C)(C)C2)C1c1cccnc1 (centres undefined),,"inconclusive [inhibitor, partial curve]"
N=c1n(CCO)c2ccccc2n1CCOc1ccccc1,inactive: 12.1%,
CC(=O)Oc1ccccc1C1=NN(C(=O)/C=C/c2ccccc2)C(c2ccccc2)C1 (centres undefined),,"inconclusive [inhibitor, single point]"
CCOC(=O)c1sc(NC(=O)CCN2C(=O)c3ccccc3C2=O)c(C(=O)OCC)c1C,,"inconclusive [inhibitor, single point]"
CN1CCc2c(sc3nc(SCC(N)=O)n(-c4ccccc4)c(=O)c23)C1,,"inconclusive [inhibitor, partial curve]"
O=C(NCc1ccccc1)c1ccc(S(=O)(=O)C(F)F)cc1,inactive: -7.23%,
Cc1cccc(C)c1N1CCN(S(=O)(=O)c2ccc(F)cc2)CC1,,"inconclusive [inhibitor, single point]"
